In the supplement of paper PMC4967469:
IC50 is the fitted dose that halves viability relative to control wells, and lower means more sensitive; fits outside the tested doses are given as limits. The AUC spans the tested range (256-fold, ending at the top dose) of the same fit; it is 1 without any effect and falls as sensitivity rises. An inferred top dose was calculated from the reported fits.

Compound: O=C1NC(=NCc2cccs2)S/C1=C\c1ccc2ncccc2c1 [RO-3306]
Assay: Viability of human cancer cell lines after 72 h of drug (GDSC screen)
Details: top dose 5 µM; top dose inferred
Procedure: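 Human cancer cell lines in 384-well plates, medium with 10% serum, drug for 72 h over a 256-fold dose range (nine 2-fold or five 4-fold steps up to the top dose). Adherent lines were fixed and stained with the nucleic acid dye Syto60, suspension lines read with resazurin; signal relative to control wells, capped at 0 and 100%. One two-parameter sigmoid per drug and line, fitted in a mixed model over all curves with the slope shared within a line.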

Cell Line	AUC	IC50
KINGS-1 (glioma, adherent)	0.971	> 5 µM
KLE (endometrium, adherent)	0.964	> 5 µM
KM12 (large intestine, adherent)	0.978	> 5 µM
KM-H2 (Hodgkin lymphoma, suspension)	0.989	> 5 µM
KMH-2 (thyroid, adherent)	0.871	3.86 µM
KMOE-2 (acute myeloid leukaemia, suspension)	0.944	> 5 µM
KMRC-1 (kidney, adherent)	0.986	> 5 µM
KMRC-20 (kidney, adherent)	0.985	> 5 µM
KMS-11 (myeloma, suspension)	0.982	> 5 µM
KNS-42 (glioma, adherent)	0.98	> 5 µM
KNS-62 (lung squamous cell carcinoma, adherent)	0.968	> 5 µM
KNS-81-FD (glioma, adherent)	0.972	> 5 µM
KON (head and neck, adherent)	0.811	2.58 µM
KOPN-8 (B-cell leukaemia, suspension)	0.99	> 5 µM
KP-1N (pancreas, adherent)	0.986	> 5 µM
KP-2 (pancreas, adherent)	0.986	> 5 µM
KP-3 (pancreas, adherent)	0.976	> 5 µM
KP-N-YN (neuroblastoma, adherent)	0.986	> 5 µM
KS-1 (glioma, adherent)	0.962	> 5 µM
KU812 (chronic myeloid leukaemia, suspension)	0.986	> 5 µM
KU-19-19 (bladder, adherent)	0.953	> 5 µM
KURAMOCHI (ovary, adherent)	0.95	> 5 µM
KY821 (leukaemia, suspension)	0.988	> 5 µM
KYAE-1 (oesophagus, suspension)	0.985	> 5 µM
KYM-1 (rhabdomyosarcoma, adherent)	0.95	> 5 µM

Cell Line	AUC	IC50
KYSE-50 (oesophagus, adherent)	0.986	> 5 µM
KYSE-140 (oesophagus, adherent)	0.961	> 5 µM
KYSE-150 (oesophagus, adherent)	0.979	> 5 µM
KYSE-220 (oesophagus, adherent)	0.983	> 5 µM
KYSE-410 (oesophagus, adherent)	0.941	> 5 µM
KYSE-450 (oesophagus, adherent)	0.974	> 5 µM
KYSE-510 (oesophagus, adherent)	0.958	> 5 µM
KYSE-520 (oesophagus, adherent)	0.91	> 5 µM
L-363 (myeloma, suspension)	0.984	> 5 µM
L-428 (Hodgkin lymphoma, suspension)	0.99	> 5 µM
L-540 (Hodgkin lymphoma, suspension)	0.98	> 5 µM
L-1236 (Hodgkin lymphoma, suspension)	0.979	> 5 µM
LAMA-84 (chronic myeloid leukaemia, suspension)	0.934	> 5 µM
LAN-6 (neuroblastoma, adherent)	0.977	> 5 µM
LB373-MEL-D (melanoma, adherent)	0.973	> 5 µM
LB647-SCLC (small cell lung carcinoma, semi-adherent)	0.968	> 5 µM
LB771-HNC (head and neck, adherent)	0.982	> 5 µM
LB831-BLC (bladder, adherent)	0.924	> 5 µM
LB996-RCC (kidney, adherent)	0.975	> 5 µM
LB1047-RCC (kidney, adherent)	0.829	3.65 µM
LB2518-MEL (melanoma, adherent)	0.986	> 5 µM
LC4-1 (lymphoblastic leukaemia, suspension)	0.982	> 5 µM
LC-1-sq (lung squamous cell carcinoma, adherent)	0.948	> 5 µM
LC-2-ad (lung adenocarcinoma, adherent)	0.972	> 5 µM
LCLC-97TM1 (large cell lung carcinoma, adherent)	0.961	> 5 µM

Cell Line	AUC	IC50
LCLC-103H (large cell lung carcinoma, adherent)	0.977	> 5 µM
LK-2 (lung squamous cell carcinoma, adherent)	0.986	> 5 µM
LN-18 (glioma, adherent)	0.983	> 5 µM
LN-229 (glioma, adherent)	0.905	> 5 µM
LN-405 (glioma, adherent)	0.975	> 5 µM
LNCaP-Clone-FGC (prostate, adherent)	0.97	> 5 µM
LNZTA3WT4 (glioma, adherent)	0.985	> 5 µM
LOU-NH91 (lung squamous cell carcinoma, adherent)	0.937	> 5 µM
LOUCY (T-cell lymphoblastic leukaemia, suspension)	0.988	> 5 µM
LOXIMVI (melanoma, semi-adherent)	0.923	> 5 µM
LP-1 (myeloma, suspension)	0.99	> 5 µM
LS-180 (large intestine, adherent)	0.982	> 5 µM
LS-411N (large intestine, adherent)	0.981	> 5 µM
LS-513 (large intestine, adherent)	0.979	> 5 µM
LS-1034 (large intestine, adherent)	0.981	> 5 µM
LU-65 (large cell lung carcinoma, suspension)	0.987	> 5 µM
LU-134-A (small cell lung carcinoma, suspension)	0.987	> 5 µM
LU-135 (small cell lung carcinoma, suspension)	0.988	> 5 µM
LU-139 (small cell lung carcinoma, suspension)	0.971	> 5 µM
LU-165 (small cell lung carcinoma, suspension)	0.988	> 5 µM
LXF-289 (lung adenocarcinoma, adherent)	0.759	1.72 µM
LoVo (large intestine, adherent)	0.983	> 5 µM
M059J (glioma, adherent)	0.985	> 5 µM
MC116 (B-cell lymphoma, suspension)	0.999	> 5 µM
MC-CAR (haematopoietic neoplasm, suspension)	0.981	> 5 µM

Cell Line	AUC	IC50
MC-IXC (neuroblastoma, adherent)	0.981	> 5 µM
MCF7 (breast, adherent)	0.901	> 5 µM
MDA-MB-157 (breast, adherent)	0.978	> 5 µM
MDA-MB-231 (breast, adherent)	0.979	> 5 µM
MDA-MB-330 (breast, adherent)	0.917	> 5 µM
MDA-MB-361 (breast, adherent)	0.98	> 5 µM
MDA-MB-415 (breast, adherent)	0.978	> 5 µM
MDA-MB-436 (breast, adherent)	0.968	> 5 µM
MDA-MB-453 (breast, adherent)	0.977	> 5 µM
MDA-MB-468 (breast, adherent)	0.792	2.18 µM
MDST8 (large intestine, adherent)	0.954	> 5 µM
ME-1 (acute myeloid leukaemia, suspension)	0.987	> 5 µM
ME-180 (cervix, adherent)	0.84	3.67 µM
MEG-01 (chronic myeloid leukaemia, suspension)	0.981	> 5 µM
MEL-HO (melanoma, adherent)	0.981	> 5 µM
MEL-JUSO (melanoma, adherent)	0.947	> 5 µM
MES-SA (uterus, adherent)	0.953	> 5 µM
MFE-280 (endometrium, adherent)	0.982	> 5 µM
MFE-296 (endometrium, adherent)	0.906	> 5 µM
MFE-319 (endometrium, adherent)	0.932	> 5 µM
MFH-ino (soft tissue, adherent)	0.976	> 5 µM
MFM-223 (breast, adherent)	0.987	> 5 µM
MG-63 (osteosarcoma, adherent)	0.984	> 5 µM
MHH-CALL-2 (B-cell leukaemia, suspension)	0.992	> 5 µM
MHH-ES-1 (Ewing sarcoma, adherent)	0.946	> 5 µM
